The whole screen tested about 48,000 compounds, of which about 1,200 (2.5%) were called active. Another 2% or so got no clear call; they are omitted.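 Rule for the calls: active = activation of at least 60% and not above a set upper limit (about 1 call in 100 departs from these limits); inconclusive = activation of 40% to 60%, or above that upper limit; inactive = activation under 40%.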 The list shows a part of the results.
biological target: Probable G-protein coupled receptor 32 (Homo sapiens) (UniProt O75388); test: qHTS for Agonists of Human Resolvin D1 Receptor DRV1; settings: CHO-K1 GPR32 beta-arrestin PathHunter luminescence, 90 min; at 76.9 µM; hits give high values; zero percent set by DMSO-only wells; note: 0% is about no effect
Summary of the method: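 Engineered CHO-K1 line co-expressing GPR32-ProLink and EA-beta-arrestin. Compound treatment lasted 90 min at 37 °C. Luminescence was recorded after 1 h with substrate at ambient temperature, relative to DMSO basal wells.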

Chain of UniProt O75388 (O75388 whole entry, looked up): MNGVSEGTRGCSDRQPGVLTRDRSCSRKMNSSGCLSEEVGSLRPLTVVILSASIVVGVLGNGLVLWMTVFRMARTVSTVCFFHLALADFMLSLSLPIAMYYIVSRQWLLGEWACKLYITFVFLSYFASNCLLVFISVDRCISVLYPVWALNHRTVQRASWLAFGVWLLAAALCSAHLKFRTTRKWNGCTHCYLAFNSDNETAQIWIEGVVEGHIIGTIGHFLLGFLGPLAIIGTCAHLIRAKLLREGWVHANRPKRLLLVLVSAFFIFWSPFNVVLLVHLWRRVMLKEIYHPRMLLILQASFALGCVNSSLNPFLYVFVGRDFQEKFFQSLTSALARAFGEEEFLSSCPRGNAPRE

activation, active:
O=c1c(NCCc2ccc(Cl)cc2)nccn1-c1ccccc1 91.1%, Cc1cc(C)cc(N(CC(=O)Nc2ccc(C)cc2Cl)S(=O)(=O)c2c(C)[nH]c(=O)[nH]c2=O)c1 78.6%

activation, inactive:
COc1cccc(/C=C/c2nc3ccccc3c(=O)n2-c2ccc(C)c(C)c2)c1OC -2.7%, COc1ccc(Cl)cc1S(=O)(=O)N1CCC(c2ccncc2)CC1 9.74%, COc1ccc(NC(=O)c2ccco2)cc1NC(=O)COc1cc(C)ccc1C(C)C 32.8%, CCOc1ccc(NC(=O)c2c(NC(=O)c3ccncc3)sc3c2CCC(C(C)(C)C)C3)cc1 (stereo unspecified) 5.53%, COc1ccc(-c2nnc(SCC(=O)Nc3ccc(C)c(Cl)c3)nc2-c2ccc(OC)c(OC)c2)cc1OC -26.2%, O=C(c1ccc(F)cc1)N1CCN(CCc2ccncc2)CC1 3.74%, Cc1cccc(OCC(=O)NCc2ccc3c(c2)CCN3C(=O)c2ccc(Cl)cc2)c1 6.93%, O=C(c1cccn1-c1nnc(N2CCCC2)s1)N1CCN(c2ccc(F)cc2)CC1 -12.3%, O=C(Cn1cc(SCc2ccc(Cl)cc2)c2ccccc21)N1CCCC1 -18.1%, CC(=O)Nc1ccc(NC(=O)CN2C(=O)CCc3cc(S(=O)(=O)N4CCCCC4)ccc32)cc1 9.21%, Cc1cccc(CNC(=O)CN2CC(C)Sc3ccccc32)c1 (stereo unspecified) -5.8%, O=C(Nc1ccc(F)cc1)Nc1nnc(SCC(=O)N2CCCCC2)s1 2.04%, COc1cccc(NC2=CC(c3ccc(C(C)C)cc3)N(c3cccc(OC)c3)C2=O)c1 (stereo unspecified) -23.7%, Cc1c(Cl)cccc1-n1nnc(-c2nc(-c3ccc4c(c3)OCO4)no2)c1C -2.24%, Cc1c(C(=O)N(Cc2cccc(Cl)c2)Cc2ccco2)oc2ccccc12 0.249%, COc1ccc(C)cc1NS(=O)(=O)c1cc(Br)cc2c1N(C(C)=O)C(C)C2 (stereo unspecified) -7.96%, O=C(OCC(O)CO)c1ccccc1Nc1ccnc2cc(Cl)ccc12 (stereo unspecified) 18.4%, CCN(CC)C(=O)c1sc2c(c1C)c(=O)n(Cc1ccccc1)c(=O)n2CC(=O)Nc1ccc(OC)cc1 -19.6%, CCCSc1ncc(Cl)c(C(=O)Nc2sc3c(c2C(N)=O)CCCC3)n1 -7.45%, Cc1ccccc1CNC(=O)Cc1csc2ccccc12 -20.8%, COc1ccccc1NC(=O)CCNS(=O)(=O)c1ccc2c(c1)CCN2C(=O)C1CC1 49.2%, COC(=O)c1ccc(-n2nnc(-c3nsc(NC(=O)c4ccc(Cl)cc4)n3)c2C)cc1 -9.91%, Cc1ccc(C)c(N2CCN(S(=O)(=O)c3ccc(F)c(C(=O)Nc4ccc(Cl)cc4Cl)c3)CC2)c1 -14.4%, Cc1cc2n(n1)CCCN2C(=O)Nc1ccc(C)c(Cl)c1 -3.15%, COc1ccc(OC)c(CCNC(=O)c2cc3cccc4c3n2CCS4)c1 -16.1%, CCOC(=O)c1c(C)oc2ccc(N(C(=O)c3ccncc3)S(=O)(=O)c3ccc(F)cc3)cc12 -6.66%, CN(c1ccccc1)S(=O)(=O)c1nnc(NC(=O)c2cccs2)s1 36%, CCN(Cc1ccccc1)C(=O)CCS(=O)(=O)c1cc(Br)cc2c1N(C(=O)C1CC1)CC2 -11.4%, CCc1ccccc1N(C)C(=O)c1cc2c(Cl)nc3ccc(C)cc3c2s1 -9.28%, Cc1ccc2[nH]c3c(=O)n(CC(=O)NCCCN4CCN(c5ccc(F)cc5)CC4)ncc3c2c1 -11.7%, CCOc1ccccc1NC(=O)Cn1c(=O)n(CCCCC(=O)NCCCOC)c(=O)c2ccccc21 -19.1%, c1ccc2[nH]ccc2c1 -5.14%, N#Cc1ccccc1Cn1c(=O)n(-c2ccccc2)c(=O)c2c3c(sc21)CCC3 -13.4%, O=C(NCc1cccc(F)c1)C1CCN(c2nn3cc(-c4ccc(F)cc4)nc3s2)CC1 8.02%, CCc1ccc(NC(=O)Cn2nnc(C(=O)NCCc3ccccc3)c2N)cc1 -2.9%, O=C(Nc1ccc(O)c(-c2nc3ccccc3o2)c1)c1ccc(-c2cccc(Cl)c2)o1 10.7%, Cc1cccc(C)c1NC(=O)c1nc(SC(C)C)ncc1Cl -2.51%, Cc1ccccc1CNCCSc1nnnn1C 1.93%, CC1CCN(S(=O)(=O)c2ccc3c(c2)oc(=O)n3CC(=O)N2CCCCC2)CC1 6.75%, COCCCNC(=O)C1CCN(C(=O)c2ccc(-n3ccc4ccccc43)s2)CC1 6.32%, Cc1ccc(CN2C(=O)C3(c4ccccc42)N(c2ccc(C)c(Cl)c2)C(=O)CS3(=O)=O)cc1 (stereo unspecified) 4.21%, CCc1nc2sc3c(N4CCCCC4)ncnc3c2c2c1CCCC2 13.2%, Cc1cccc(C)c1NC(=O)c1ccc(N)cc1 -13.7%, COc1cccc(/C=C(\C#N)C(=O)Nc2ccc(NC(C)=O)cc2)c1OC -20.4%, COc1ccc(NC(=O)CSc2cn(CCNC(=O)c3ccc(OC)cc3)c3ccccc23)cc1 11.7%, O=C(CCC1N=C2c3ccccc3N=C(SCc3cccc(Cl)c3)N2C1=O)NCCc1ccccc1 (stereo unspecified) 19.7%, COc1ccc(NC(=O)CCS(=O)(=O)c2ccc3c(c2)n(C)c(=O)c(=O)n3C)cc1Cl -3.52%, CCCCC(O)/C=C(C)/C=C/C=C/C(=O)N1CCCC1=O (stereo unspecified) -17.1%, Cc1oc(-c2cccc(Br)c2)nc1Cn1c(SCc2cccc(F)c2)nc2cccnc21 -19.9%, CCC(C)[C@H](N)c1nnc(SCc2ccc(Cl)c(Cl)c2)o1 (stereo partly specified) 13.9%, COc1ccc(Br)cc1CNC(=O)CSc1n[nH]c(-c2ccccc2)n1 -8.79%, CCn1c(CN2CCCCC2)nc2cc(NC(=O)COc3ccc(C(C)(C)C)cc3)ccc21 1.03%, CN1CCN(C2=Nc3cc(F)ccc3Cc3ccccc32)CC1 -6.02%, Cc1oc2ccc(O)c(CN3CCC(C)CC3)c2c1C(=O)Nc1ccccc1 17.2%, COc1ccc2c(c1)NC(c1ccc(Cl)cc1)=NC(c1cccs1)=N2 -17.5%, Cc1ccc(S(=O)(=O)NCCSc2nnnn2-c2ccccc2)cc1 -1.02%, CCCN1C(=O)C(Cc2nc3ccccc3c(=O)n2CC)c2cc(Br)ccc21 (stereo unspecified) -10.9%, CC(C)(C)c1ccc(-c2nnc(-c3ccccc3NC(=O)c3cccc(C(F)(F)F)c3)o2)cc1 4.17%, Cc1ccc(C)c(Cn2c(=O)n(Cc3ccccc3)c(=O)c3sc4ccccc4c32)c1 11.1%, COc1cc(NC(=O)CCCc2nnc3n(C)c(=O)c4sccc4n23)cc(OC)c1OC -10.6%, Cc1ccc(CNC(=O)CSc2c(C(C)C)cnc3c2c(=O)n(C)c(=O)n3C)cc1 -16.7%, O=C(CSCc1ccc(F)cc1)NCc1ccc(F)cc1 -10.3%, Cc1cccc(CC(=O)N2CC(=O)Nc3ccc(F)cc3C2c2ccccc2)c1 (stereo unspecified) -17.5%, NC(N)=NC(N)=Nc1cccc(Cl)c1 2.48%, CCC(CC)C(=O)N1CCc2cc(OC)c(OC)cc2C1COc1ccc(F)cc1 (stereo unspecified) 2.12%, CCc1ccccc1NC(=O)Nc1ccc2snnc2c1 46.2%, CCc1ccc(NS(=O)(=O)c2ccc3[nH]c4c(c3c2)CCCCCC4)cc1 40.3%, Cc1cccc(-n2ncc(C(=O)NCc3ccc4c(c3)OCO4)c2C2CCN(C(=O)OC(C)(C)C)CC2)c1 -20.5%, O=C(CSc1nc(Nc2ccc(F)c(F)c2)c2ccccc2n1)c1ccc(Cl)cc1 -16.5%, COc1ccc(-c2cccc(NS(=O)(=O)c3ccc(NC(C)=O)cc3)c2)nn1 35.7%, CC(C)(C)OC(=O)N1CCC(c2c(C(=O)NCCN3CCOCC3)cnn2-c2ccc(F)cc2F)CC1 0.021%, CCCCN(C)CCNC(=O)c1cc(-c2ccc(Cl)s2)nc2ccccc12 47.4%, CCc1ccc(NC(=O)CN2C(=O)CC(c3ccccc3)Sc3ccccc32)cc1 (stereo unspecified) -14.2%, CCOc1ccccc1Nc1nc2c(S(=O)(=O)c3ccc(C)cc3)nnn2c2ccsc12 -6.74%, CCOC(=O)c1c(-c2ccccc2)csc1NC(=O)c1nc(SCC)ncc1Cl 20.5%, Cc1ccc(-c2nc3scc(CCNS(=O)(=O)c4ccc(Oc5ccccc5)cc4)n3n2)cc1 -4.68%, Cc1ccc2nc(CSc3nnc(NC(=O)c4ccc(C(C)(C)C)cc4)s3)cc(=O)n2c1 -2.2%, CC(=O)Nc1ccc(NC(=O)c2ncoc2-c2ccco2)cc1 -0.334%, CCOc1cc(/C=C(\C#N)C(=O)Nc2ccc(OC)cc2)ccc1OCc1cc(=O)n2nc(CC)sc2n1 3.37%, CCc1cccc(C)c1NC(=O)CN1C(=O)c2cccc3cccc1c23 17.1%, CCCCCNC(=O)C1CCC(Cn2c(=O)c3sccc3n(CC)c2=O)CC1 (stereo unspecified) -2.94%, COc1ccc(-c2ccnc3c2c(=O)n(C)c(=O)n3C)cc1OC 0.618%, COCCCNC(=O)CCCN1C(=O)CCn2nc(-c3cn(C)c4ccccc34)cc21 -4.54%, Cc1ccc(C)c(N2CCN(CCCNc3ncnc4onc(-c5ccc(Cl)cc5)c34)CC2)c1 11.1%
